# Results taken from the supplement of paper PMC11417369.
# The other results are listed elsewhere or left out.
# Test system: PfSIP2 AP2 domain 1 (GST-tagged)
# Experiment: gcPBM binding intensity (ln(normalized median fluorescence intensity)); higher = stronger DNA binding
# Outline: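 DNA-binding domains from P. falciparum, fused to GST and produced in E. coli, were put on an Agilent 4 × 180k double-stranded probe array for 1 h in 1× PBS holding 1% milk, 0.2 mg/ml BSA, 0.5% salmon testes DNA and 0.03% Triton X-100. Probes were primer-extended, 36 bp long and drawn from intergenic genomic regions, with negative controls included. After Alexa488 anti-GST antibody detection and a 488 nm scan, binding intensity was set as the highest Masliner-normalised natural-log median intensity across replicate spots of either probe orientation.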
row,Sequence,gcPBM binding intensity (ln)
1,AGTTATATGATTAATACACACAACAAATGTTTCTTC [CACACA_site1092],6.96
2,ATGTATGTTTATTACTATTTTGAGAATAGACTATAA [CACACA_negctrl_site1366],6.87
3,ACGACTAAATATATGAGTACATATATATATAAATAT [XGTACX_site7522],6.9
4,AAGAATCATATTTAAACACACATACAGATATATATA [CACACA_site5787],7.25
5,TGCAAAAAATTCCACACACACACACCCATATAAATA [CACACA_site1230],7.17
6,TCTAAAATAAATAATGCATGTTAAAAAAAAATATAT [TGCATGCA_site562],7.04
7,CAAATATGTCTTATTCGTACACATATATATATATAT [XGTACX_site8817],9.64
8,TTTCTTTATAAATTAATATTCACAACACAAAATATA [CACACA_negctrl_site450],7.01
9,AAGAAAATAAAAAATAAGCATAATATGATATGATAT [TGCATGCA_negctrl_site196],6.78
10,AAAAATTTGGCATACACACACACACCGACACAGACA [CACACA_site4489],7.16
11,GTGCATATAAGGAAGTGTACGAAAAAAAATATTCCA [XGTACX_site8490],9.04
12,ATTTATTAAATAAAAAGTACAAAATAAGAAAGAAGA [XGTACX_site6935],7.43
13,TTATATATATCTAATTGTACAATATTATGTTCATTA [XGTACX_site7479],6.93
14,ATATATAATATAATATGTACATAAAATTTTAACATT [XGTACX_site5773],7.23
15,AAAAAAACAGTGAATGCACACATTTAAGATCCATAT [CACACA_site3148],7.13
16,TATATTCCCTTAATCACACATAAATAAAAAAAAATA [CACACA_site6094],7.12
17,TATTTCCTTTTTCTTGTTATTCATGAGAAAAAATGA [CACACA_negctrl_site482],6.98
18,GAAATTTTTAATGTGGTGCACAGGAAATTTTTTCTT,11
19,AAAATAATAATAGGCACACATATATATATATATATA [CACACA_site2058],9.25
20,AAAAAAAAAAAAACTACACACATACAAATATTTATA [CACACA_site5430],7.03
21,TACATACATACAGGAGTGCATATATCACAATTATTA,9.25
22,AGTATACTCGGACACACACACACATATATATATATA [CACACA_site5031],9.59

row,Sequence,gcPBM binding intensity (ln)
1,TTTGTATAGTTGTAGGTGCATATCATTTTTAAATGT [GTGCAC_site9708],10.4
2,TGTTAATAAAGGTGTACACAAAATAAAAAAAATTAT [CACACA_site4288],7.72
3,AAAAAAAAAGGTAACGCATGCTTTTAGATTATATTA [TGCATGCA_site398],6.56
4,TATAATTATATTTGGAGTACAAATTTTTTTTTTTTT [XGTACX_site7494],7.14
5,AAGTATGCTTGCTACTTATTAAGTGGCAATATAATT [XGTACX_negctrl_site74],6.78
6,AGAACCATATATAAATGTACATGTTAATATGAATAA [XGTACX_site130],7.03
7,GGACAAAAAAAAAAAATAAAATAAAAATAAATAAAT [XGTACX_negctrl_site106],6.71
8,AAATATATATGAAGATGTACATATATATATGTAAAT [XGTACX_site4039],7.11
9,TAACACTTATAAAAAAGTACTGATGAAATAATACTA [XGTACX_site7305],6.69
10,AAAAATTCCAGACACACACACACATATAAATAAATA [CACACA_site1232],7.08
11,AAAAAAAAAAAAAAGAGTACTTTTTTCTCATTACTA [XGTACX_site8353],7.12
12,AAAAAAAAAAAAATAGGTACGTAAATATTTCTTTAA [XGTACX_site6423],6.97
13,TCTTTTAGTTTTATCCACATAATAAAAAGCAAAAAA [GTGCAC_negctrl_site368],7.09
14,TATTCTTCAATTTAAAGTACAAAAATTACTATACTT [XGTACX_site6599],6.87
15,AATTAAAATATATATATACACACGTAATTATATATA [CACACA_site3819],6.8
16,ATTGTGGCAATATATTGTACATGTAATATAAATATA [XGTACX_site5415],7.06
17,TACATATAATATATTGCACACGTCAGAATAATATAG [CACACA_site1744],7.28
18,TAATAGAATATGATGGTGCAGCAGTCTTATTTTTCA,9.68
19,TTTCTTTCTTCACATATATATATATATATATTTATA [TGCATGCA_negctrl_site341],7.49
20,TTAGCCATTAATTCTCTACACACCTTTATGTTATTT [CACACA_site9212],6.79
21,TTTTATAATATTTAAAGTACATTCTAAAAATATAAT [XGTACX_site8033],6.87
22,CCCCCCCACGGACACACACACATACATACCACATAT [CACACA_site5303],9.09

row,Sequence,gcPBM binding intensity (ln)
1,ATTTTTTTTTTTTTTTTTTTTTTTTAGATTAAGAAA [CACACA_negctrl_site1272],6.76
2,AAATAAAATAAAATAAAATAAAATTCTTTGATACCT [TGCATGCA_negctrl_site604],6.85
3,TATTCTAATTTTTAAACACACAAATATAAATAAGTA [CACACA_site3149],6.89
4,CTATTTATTATATATACATGCATATATATATTAATA [TGCATGCA_site527],7.06
5,TAAAAATGTGTATGTACACACTTTATTTTTAATACA [CACACA_site7235],6.79
6,GATAATTATGGACACACACACACACCCACAACTAAA [CACACA_site8824],7.11
7,TATTAAACGAAACACACACACACACCCATATATAAA [CACACA_site759],7.1
8,AAAAAGAATGTGAACACACACATTGAATCTAATTTA [CACACA_site6711],6.75
9,AGATGATATATTATATATCCTTTTAATAAATGTAAT [CACACA_negctrl_site730],6.72
10,ACATATAATATATATATATATATATATATATATAAT [GTGCAC_negctrl_site648],7.63
11,TATATAAAAAATTCAATACACACCATATATAAATAT [CACACA_site3987],6.98
12,TATTTTTCCATATGCACACACACCGTATATATAATA [CACACA_site1127],7.82
13,ATAACAAAATAAAACACACACACAAATGTACATATA [CACACA_site2425],7.19
14,CATATACACCAACACACACACACACCCACAAAAAAA [CACACA_site496],7.45
15,AAATAAATAATTTAATGTACATATATAATATATATA [XGTACX_site1831],7.23
16,CTTTTTAATAAATATACACACACAAAAAAAAAAAAA [CACACA_site9316],6.9
17,TAAATAAAGTATAATGCATGCTATTATAATATTAAT [TGCATGCA_site825],6.99
18,CACTTTATACGTAATTGTACTTTTTCTTTTTTTTAT [XGTACX_site3175],7.23
19,TATTCAAAGAAAGACAGTACGTGTAGCAAACAACCT [XGTACX_site4218],6.91
20,ACTTACTAATTAATGGGTACATACACACATATATAC [XGTACX_site1362],7.48
21,AATAAAAAAATAGAAACACACATTAAAAAAAATAAA [CACACA_site1333],6.78
22,ATGATATATAGACACACACACATATTTATATACATT [CACACA_site6404],6.97

row,Sequence,gcPBM binding intensity (ln)
1,ATCATTTATTTTTTAAAAGTATATATATATATATAT [CACACA_negctrl_site220],9.47
2,TTAATAAAAATATATCCACACACATATATATATATG [CACACA_site8091],7.26
3,TTTTTTTTTTTTTAAATAATCATACATGTGAAATTG [GTGCAC_negctrl_site328],6.95
4,ACATATTATAACATATGTACATATATATATATATAA [XGTACX_site5567],7.48
5,AAATATAAGTTTTATTGTACATTATATAGCATATTT [XGTACX_site6618],6.93
6,TTTTGACATTAACTTAAAAAATAAATAATTATAAAA [XGTACX_negctrl_site552],6.88
7,TATCATATAAAACATGCACACATATGTACTCTTATA [CACACA_site9249],7.62
8,AAAAAATAAGATTGTACACACATAAATTCTTTGTCA [CACACA_site2089],6.85
9,CGTTCTATTTAGATATGTACTTAAATATATGATCAT [XGTACX_site2936],7.02
10,TTATAAAACACAAAATGTACAAAAAATTATAATTAA [XGTACX_site6859],6.97
11,TTAAAGAATATTTTCACACATAAAAATTTTAATTTA [CACACA_site4290],6.63
12,AATATTATTATCTTACCACACACAATCTACGAAAAG [CACACA_site8006],7.08
13,TATATATATATAAGTGCACACTGAACCAAGAAAATT [CACACA_site5637],9.97
14,TATGTCTTGTTGTAAAATATTTATTAACAAATTGGC [CACACA_negctrl_site1452],7.06
15,ATTTTTATTTTCTTTACACACCACATAACTTTTTTT [CACACA_site7826],7.36
16,ATATATATATATATATGTACATATATCTACATATAT [XGTACX_site7588],9.79
17,ACTTTTTAATATTTTAGTACACAGTAATTCTTACTA [XGTACX_site1425],7.65
18,TTTAATATGAATTTATGTACATATATATATATATAT [XGTACX_site6337],9.53
19,TATATTAAAAAAAAATGTACATATATATAATATATA [XGTACX_site1935],7.37
20,AAAAAGTGATTAAAATGTACAAAATGCATAAAAGAA [XGTACX_site6625],7.8
21,GATATGTTAAATATATGTACATATATAAACCCAAAC [XGTACX_site6601],7.29
22,AAAGTAAAAAAAAAAACATGCATACGCTAATTTTTA [TGCATGCA_site301],6.7
